Reference: PubChem BioAssay AID1508642 (National Center for Advancing Translational Sciences (NCATS), 2021)
In all, about 43,000 compounds went through this assay and about 200 (0.47%) were called active. Roughly 12% stayed inconclusive and do not appear here. Calls follow the shape of the dose curve; as a rule, active = well fitted cell-killing curve with a large enough effect; inconclusive = small, poorly fitted or top-dose-only effect, or effect the other way; inactive = flat fitted curve, though single readings scatter. The list shows a part of the results.

Test: Cell viability qHTS assay in S16 Pmp22-F2sN cells; also: nearly all actives have a fitted effect of over 65% in size
Conditions: S16 Pmp22-F2sN Schwann cells (luciferase reporters placed in the Pmp22 gene) viability, CellTiter-Glo, 24 h; series mostly up to 57.5 µM; activity change, negative = cytotoxicity: at the top concentration
Method in brief: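 Seed 500-1,000 S16 Pmp22-F2sN cells per well in phenol-red-free DMEM with 10% heat-inactivated FBS; pin-add 23 nL compound; incubate 24 h at 37C; add CellTiter-Glo, wait 15 min protected from light; read luminescence.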
% is scaled to controls: 0 for no effect and ±100 for the full control effect.

Compound	activity change, negative = cytotoxicity
CCc1cccc(NC(=O)Cn2nc3c4cc(F)ccc4n(Cc4cccc(C)c4)cc-3c2=O)c1	inactive: 17.6%
CCc1ccccc1N1C(=O)N(CC(=O)c2ccc(OC)cc2)c2ccccc2S1(=O)=O	inactive: 13.5%
CC(C)Oc1ccc(C(=O)Nc2nonc2-c2ccc(OC(C)C)cc2)cc1	inactive: 2.16%
COC(=O)CCN(C(=O)C1CCN(S(=O)(=O)c2c(C)noc2/C=C/c2ccccc2F)CC1)c1ccccc1	inactive: 3.22%
COc1ccc(NC(=O)C(=O)NCc2ccco2)cc1	inactive: 0.0184%
CCN(CCCNC(=O)Cn1ncc2c([nH]c3ccc(C)cc32)c1=O)Cc1ccccc1	inactive: 1.86%
CC(C)n1c(=N)c(C(=O)NC2CCCCC2)cc2c(=O)n3ccccc3nc21	inactive: 5.83%
Clc1cccc(CSc2nnc(C3CCNCC3)o2)c1	inactive: 10.3%
CC(=O)Nc1ccc(S(=O)(=O)NCCS(=O)(=O)N2CCN(c3ccccc3F)CC2)cc1	inactive: 5.09%
COc1cccc(Nc2nc3ccc(C(=O)c4ccccc4)cc3n3c(C)nnc23)c1	inactive: 4.28%
CCOc1ccc2cc(-c3nnc(Nc4ccc(C)cc4)s3)c(=O)oc2c1	inactive: -1.63%
Cc1ccccc1OCc1ccc(-c2nc(C#N)c(N3CCC(C(N)=O)CC3)o2)o1	inactive: 1.9%
Cc1ccccc1NS(=O)(=O)c1nnc(NC(=O)c2ccco2)s1	inactive: 7.17%
CCOC(=O)c1c(S(=O)(=O)NCC(=O)N(C)c2ccc(C)cc2)c(C)n(C)c1C	inactive: -0.877%
COc1ccc(CCC(=O)NCCc2csc(-c3cccc(C)c3)n2)cc1	inactive: 13%
Cc1ccc(C)c(CN2C(=O)c3ccccc3S(=O)c3ccc(C(=O)NCCC4=CCCCC4)cc32)c1 (stereo not given)	inactive: -0.429%
Cc1ccccc1-c1nc(SCC(=O)N(C)c2ccccc2)c2c(=O)n(C)c(=O)n(C)c2n1	inactive: -1.41%
O=C(Nc1ccc(Cl)c(-c2nc3cc(Cl)ccc3o2)c1)c1cc2ccccc2o1	inactive: 13.8%
Cc1ccc(C2CCN(C(=O)Nc3ccc(C)c(C)c3)C2)cc1 (stereo not given)	inactive: 12.3%
COc1cccc(C(=O)Nc2ccc(S(=O)(=O)N(Cc3ccccc3)c3ccccc3)cc2)c1	inactive: -22.8%

Compound	activity change, negative = cytotoxicity
CCS(=O)(=O)N1CCc2cc(C(=O)NCCc3ccc(OC)c(OC)c3)ccc21	inactive: -0.0189%
Cc1ccc(C(=O)Nc2ccc3[nH]c(=O)c(=O)[nH]c3c2)cc1	inactive: 3.06%
CC(C)Oc1ccc(CNC(=O)Cn2c(-c3cccs3)cc3ccccc32)cc1	inactive: 10.7%
CC(=O)c1ccc(N2CCN(C(=O)C3CCN(S(=O)(=O)c4c(C)noc4/C=C/c4ccccc4F)CC3)CC2)cc1	inactive: 3.9%
Cc1ccc(NC(=O)c2sc3ncnc(N(C)C4CCCCC4)c3c2C)cc1	inactive: -1.29%
Cc1ccc(C)c(N2CCN(c3nc4ccccc4c(=O)n3-c3ccccc3)CC2)c1	inactive: -1.38%
O=c1c2c3c(sc2n(Cc2ccc(F)cc2Cl)c(=O)n1-c1ccc(Cl)cc1)CCC3	inactive: -3.45%
Cc1cc(C)c(Cn2c(=O)n(CCCCC(=O)NCc3ccccc3Cl)c(=O)c3ccccc32)c(C)c1	inactive: -7.63%
CCC(=O)Nc1ccccc1-c1nc2ccccc2n(C(CC)C(=O)Nc2cccc(Cl)c2)c1=O (stereo not given)	inactive: 3.83%
CCOC(=O)c1c(C)sc(-c2c(-c3cccc(Cl)c3)[nH]c3c2c(=O)n(C)c(=O)n3C)c1O	inactive: 1.37%
COc1ccc(NC(=O)C2=C(C)Nc3ncnn3C2c2ccc[nH]2)cc1 (stereo not given)	inactive: -0.848%
Cc1ccc(CNC(=O)CCc2cn(Cc3ccc(C)cc3)c3ccccc23)cc1	inactive: 13.3%
CCOc1ccc(-c2cc3nc(C4CCN(C(=O)OC(C)(C)C)CC4)c(C(=O)Nc4c(C)cccc4C)cn3n2)cc1	inactive: 4.4%
C=Cc1ccc(Cn2ccn(-c3ccc(F)c(F)c3)c(=O)c2=O)cc1	inactive: -2.47%
Cc1c(C(=O)N(C)C)sc2c1c(=O)n(-c1ccc(F)cc1)c(=O)n2Cc1ccccc1C#N	inactive: 1.61%
CCc1ccccc1N(C)S(=O)(=O)c1ccc2c(c1)C(C)(C)C(=O)N2C	inactive: 17.8%
CC(=O)Nc1ccc(NC(=O)C2CCN(c3cnccn3)CC2)cc1	inactive: 7.78%
Fc1ccc2c(c1)-c1c(cnc3cc(-c4ccc(Cl)cc4)nn13)CO2	inactive: 17%
COc1cccc(NC(=O)c2csnn2)c1	inactive: -18.6%
CCN(CC)S(=O)(=O)c1nnc(NC(=O)c2ccc(Br)cc2)s1	inactive: -25.9%

Compound	activity change, negative = cytotoxicity
COc1ccc(-c2nc(CSc3nnc(C)n4c3cc3oc(C)cc34)c(C)o2)cc1OC	inactive: 13.4%
COc1ccc(CCNC(=O)C2CCCN(S(=O)(=O)c3ccc4c(c3)oc(=O)n4C)C2)cc1OC (stereo not given)	inactive: 2.74%
O=S(=O)(c1ccccc1)c1nc(-c2cccc(Cl)c2)oc1N1CCOCC1	inactive: -11.6%
Cc1cc(NC(=O)Cn2c(=O)oc3cc(S(=O)(=O)N4CCCC4)ccc32)ccc1Br	inactive: -2.27%
O=C(Cn1ncc2c(=O)oc3ccccc3c21)N1CCN(c2ccc(Cl)cc2)CC1	inactive: 8.83%
COc1ccc(-n2nc3c(N4CCC(C(=O)NCCc5ccccc5)CC4)nnc(C)c3c2C)cc1	inactive: -2.77%
COc1cccc(CSc2nc(-c3ccccc3F)nc3c2Cc2c(CO)cnc(C)c2O3)c1	inactive: 0.55%
COc1ccc2cc(CNc3ccc(C)cc3)c(=O)n(CC(=O)Nc3cccc(Cl)c3C)c2c1	inactive: 5.21%
CCOC(=O)c1c(NC(=O)COc2ccccc2Br)sc2c1CCCCC2	inactive: -13.1%
Cc1ccc(-c2nnc(Nc3ccccc3)c3ccccc23)cc1S(=O)(=O)N1CCN(C)CC1	inactive: -3.41%
CC(C)(C)c1ccc(C(=O)N(Cc2ccc(F)cc2)Cc2ccco2)cc1	inactive: -10.4%
CCCNC(=O)c1ccc(Cn2c(=O)c3cccn3c3cccnc32)cc1	inactive: -2.15%
CCc1ccccc1NC(=O)c1ccc2c(c1)nnn2C1CCCC1	inactive: 29.4%
CCOc1ccccc1NC(=O)CN1C(=O)COc2ccc(S(=O)(=O)NC3CCCC3)cc21	inactive: 5.13%
Cc1ccc(CNC(=O)Cc2ccc(NC(=O)N3CCSc4ncccc43)cc2)cc1	inactive: -4.61%
CC(C)(C)NC(=O)N1CCC(C(=O)O)CC1	inactive: 2.46%
O=C(Nc1cccc(C(F)(F)F)c1)c1cccc(C(=O)Nc2cccc(C(F)(F)F)c2)c1	inactive: -4.16%
Cc1ccc(N2CCN(S(=O)(=O)c3ccc(Cl)c4ccccc34)CC2)c(C)c1	inactive: 3.21%
CCOC(=O)c1c(C)c(-c2ccccc2)n(CC(=O)Nc2cc(C)cc(C)c2)c1C	inactive: -7.9%
COCCCNC(=O)CCCn1c(=O)c2cccn2c2ccccc21	inactive: 12.7%
